Source: ChEMBL document CHEMBL4888484, “Replenishing the malaria drug discovery pipeline: Screening and hit evaluation of the MMV Hit Generation Library 1 (HGL1) against asexual blood stage Plasmodium falciparum ,using a nano luciferase reporter read-out” (2022)
In all, about 150,000 compounds went through this assay and about 540 (0.36%) showed an effect of 50% or more. This is one part of the list.

What follows are molecules tested on Plasmodium falciparum (assay: Primary screen in NF54 nanoGlo assay, in single point, at 2uM, 72h; a lower Z score goes with more inhibition). Conditions: timepoint 72 hour.
Type: functional, Erythrocyte

Row | Structure (SMILES) | % Inhibition [%] | Z score
1 | NC(=O)[C@@H]1CCCN1Cc1cc(O)c2cccc(F)c2n1 | 0 | -0.09
2 | Cc1ccc(Cc2nc(N3CCN(C(=O)c4ccc(F)cc4)CC3)c3c(C)nn(-c4ccccc4)c3n2)cc1 | -4 | 0.45
3 | CC1(C)C2CCC1(C(=O)Nc1ccccc1)C(=O)C2=O (centres undefined) | -17 | 3.24
4 | C[C@@H]1C[C@H](Nc2ccccc2)c2ccccc2N1 | -8 | 1.59
5 | O=C(Oc1ccc(-c2ccccc2)cc1)[C@H]1CC(=O)N(c2ccc(F)cc2)C1 | -2 | 0.25
6 | Cn1cc(CCC(=O)Nc2cc(C3CCCCCC3)[nH]n2)cn1 | -14 | 2.7
7 | C#CCN(C1CCCCC1)S(=O)(=O)N1CCCC1 | -5 | 0.49
8 | CCC(=O)Nc1cc(C(=O)NC[C@H]2CCS(=O)(=O)C2)c2c(c1)nc(Cc1ccccc1)n2C | 4 | -0.5
9 | CC[C@@H](C(=O)OC(C)(C)C)N(C)C(=O)c1conc1COC | -6 | 1.14
10 | CC[C@](C)(NC(=O)CCc1nnc(C2CCCC2)o1)c1ccccc1 | -11 | 1.61
11 | CCN(C)C1(CNS(=O)(=O)C2CC2)CCCC1 | -13 | 1.26
12 | COc1ccc(-n2nc(-c3ccco3)nc2[C@H](C)N2CCN(C)CC2)cc1 | -3 | 0.67
13 | COc1cc2oc(C(=O)N3CCN(Cc4ccccc4)CC3)c(C)c2cc1Br | -8 | 1.33
14 | COCCNC(=O)NCc1cc(-c2cnccn2)nn1C | 16 | -2.01
15 | CC1CC(C(=O)Nc2nc3ccsc3s2)CCO1 (centres undefined) | -12 | 1.64
16 | O=C(CCOC[C@H]1CCCO1)Nc1cccnc1 | -1 | 0.14
17 | Cc1ccc(-n2cc(-c3ccc(Cl)cc3)nc2NC(=O)CN(CC(C)C)S(=O)(=O)c2ccc(Cl)cc2)cc1 | -6 | 0.75
18 | Clc1cccc2c1CC[C@@H]2NCc1cc(Br)c2c(c1)OCO2 | -15 | 1.73
19 | c1cnc(N2CCN([C@H]3CCOC4(CCOCC4)C3)CC2)nc1 | -5 | 0.43
20 | Cc1ccc(Cl)cc1N1C(=O)c2cc(C(C)C)nn2C[C@@]1(C)C(=O)NC1CCCCCCC1 | 2 | -0.26
21 | CC(C)c1noc(CNC(=O)N2CCN(C(=O)c3ccccc3)CC2)n1 | -5 | 1

Row | Structure (SMILES) | % Inhibition [%] | Z score
22 | Cc1ncc(NC(=O)c2ccc(Br)o2)s1 | -6 | 0.65
23 | CCCCc1cc(C[C@@H]2C[C@H](NC(C)C)C2(C)C)no1 | -2 | 0.25
24 | CC(C)n1[nH]c(=O)c2c1NC(=O)C[C@@H]2c1ccc(O)cc1 | -8 | 1.05
25 | Cc1cc(C(F)F)oc1C(=O)N1CC(=O)N(C)C[C@@H]1C | 7 | -0.99
26 | FC(F)C1CC(Nc2cccc3nccnc23)C1 (centres undefined) | -13 | 1.34
27 | Cc1ccc(C)c(-n2cnc(=O)n2CC(=O)N2CCc3sccc3C2)c1 | 8 | -1.4
28 | CC[C@H](OC1CCCCC1)c1nc(-c2cnn(C)c2N)no1 | -16 | 2
29 | CC(C)N1CCN(C(=O)[C@H]2CCCN(c3nnc4c(Cl)cccn34)C2)CC1 | -21 | 3.51
30 | Cc1nc2c(c(N3CCCCC3)n1)CN(C(=O)c1cc(Cl)cc(Cl)c1)CC2 | -14 | 2.33
31 | CCCCCN(Cc1nnc(-c2ccccc2)o1)S(=O)(=O)c1cnn(C(F)F)c1 | -4 | 0.5
32 | Cn1cc([C@H]2CCCN(C(=O)c3cc(C(F)(F)F)n(C)n3)C2)cn1 | -17 | 1.98
33 | O=C(Cc1nnn[nH]1)N(CCC1=CCCCC1)CC1CC1 | -17 | 2.53
34 | CC1(C)CN(Cc2nccs2)C[C@]1(C)O | -14 | 2.36
35 | Cc1cc(S(=O)(=O)N2CCC(N)CC2C)c(C)o1 (centres undefined) | -3 | 0.5
36 | COc1nc(-c2cccc(C(=O)NCC3CCOCC3)c2)ncc1F | 70 | -12.03
37 | COCCn1ccnc1CN1Cc2ccccc2[C@@H](O)C1 | -15 | 1.82
38 | CCc1ccc(C(=O)N2CCC(CN3CCCCC3=O)CC2)cc1 | 3 | -0.38
39 | CC[C@@H]1C(=O)NCCCN1C(=O)c1ccnc(-n2cccn2)c1 | -2 | 0.45
40 | C[C@@H](c1cccc(-c2ccc3c(c2)CCC3=O)c1)N(C)C | -10 | 1.03
41 | COc1ccc2c(c1)CN(C(=O)c1cccc(CO)c1)[C@H](c1ccccc1)C2 | -9 | 0.94
42 | Cn1c(Cl)cnc1Cc1nc2ccccc2c(=O)[nH]1 | -7 | 0.69
